In the Bradley open melting point set (2014):

Row | Structure (SMILES) | melting point [°C]
1 | C=CC=CC [1,trans-3-pentadiene] | -87
2 | CC(C)(C)c1ccc(O)cc1 [4-tert-butylphenol] | 100
3 | CC(=O)N(C)C [N,N-Dimethylacetamide] | -20

Next, values leading:

Row | melting point [°C] | Structure (SMILES)
4 | -20 | CC(=O)N(C)C [N,N-dimethylacetamide]
5 | -20 | CC(=O)N(C)C [n,n-dimethylacetamide]
